# Results from PubChem BioAssay AID2202238 (Ras Initiative Chemistry Research Team, Frederick National …, 2025).
# The other results are listed elsewhere or left out. Shown are side measurements of this screen, not its main read-out; they come without a call.
# Target: GTPase KRas (Homo sapiens) (UniProt P01116)
# Assay: Fragment capture on engineered cysteines, share of protein labelled (AID 2202238)
# Set-up: protein at 5 µM with 500 µM competing thiol for 1.5 h
# Details: KRAS G12D cysteine mutants, disulfide tethering, MALDI-TOF labeling, stronger effect = higher value, fragment at 500 µM
# [1] = measured here: G60C mutant labeling
# [2] = measured here: G75C mutant labeling
# [3] = measured here: H94C mutant labeling
# [4] = measured here: I36C mutant labeling
# [5] = measured here: L120C mutant labeling
# [6] = measured here: M67C mutant labeling
# [7] = measured here: M72C mutant labeling
# [8] = measured here: N26C mutant labeling
# [9] = measured here: N86C mutant labeling
# [10] = measured here: P121C mutant labeling
# [11] = measured here: S122C mutant labeling
# [12] = measured here: S136C mutant labeling
# UniProt P01116, sequence (P01116 whole entry, looked up, the tested form may be a part): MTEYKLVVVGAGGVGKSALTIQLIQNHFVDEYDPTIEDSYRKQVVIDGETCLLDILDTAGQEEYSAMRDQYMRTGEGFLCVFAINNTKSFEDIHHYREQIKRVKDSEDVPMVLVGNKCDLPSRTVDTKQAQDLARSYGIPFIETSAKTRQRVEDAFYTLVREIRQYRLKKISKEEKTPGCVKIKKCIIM
SMILES,percent labeling [1] [%],percent labeling [2] [%],percent labeling [3] [%],percent labeling [4] [%],percent labeling [5] [%],percent labeling [6] [%],percent labeling [7] [%],percent labeling [8] [%],percent labeling [9] [%],percent labeling [10] [%],percent labeling [11] [%],percent labeling [12] [%]
O=C1CCC(N2Cc3cc(C(=O)NCCS)ccc3C2=O)C(=O)N1 (configuration not stated),32,20.5,28.1,25.4,32.3,30.3,45,50.4,28.7,23.8,25.1,37.2
O=C(CCS)NC1CC(Cn2cncn2)C1 (configuration not stated),,0,30.3,41,24.7,29.4,15.6,,18.5,31.9,30.4,47.4
O=C(CCS)Nc1ccc(=O)n(Cc2ccccc2)c1,,13.7,27.9,38.3,31.3,51.3,38.1,,18.9,29.8,29.6,55.4
O=C(NCCS)C1CCN(S(=O)(=O)c2ccccc2-c2ccccc2)CC1,17.2,7.6,7.9,5.3,8,8.4,15.2,22.8,7,9.1,4.4,14.3
O=C(NCCS)C1CCCN(C(=O)c2ccncc2)C1 (configuration not stated),25,10.1,31,26.6,34.2,33.2,13.8,34.1,25.6,28.2,27.8,36.9
O=C(CCS)N(Cc1nc(C2CCCCCC2)no1)C1CC1,,12.8,27.6,22.6,18,26.9,36.8,,20.7,21.4,17.1,45.5
O=C(Cc1ccc(-n2cccn2)cc1)NCCS,22.4,10.1,18.7,16.6,22.8,13.5,23,27.1,13.8,13.5,14.2,19.5
CCc1[nH]c(-c2ccc(Cl)cc2)nc1C(=O)NCCS,30.7,13.8,18.2,10.4,15.6,10.9,43.5,38.9,15,13,8.3,19.3
Cc1ccc(-c2nn(C)cc2C(=O)NCCS)o1,33.8,30.4,33.3,10.2,32.1,25.4,24.9,26.1,13.5,21.2,13.3,21.3
O=C1NCC(C(=O)NCCS)c2ccccc21 (configuration not stated),31.2,11.9,29.5,29.3,43.8,30.2,17,32,27.7,27,30.2,43
Cc1ccn(CC(C)(O)C(=O)NCCS)c(=O)c1 (configuration not stated),21.8,8.9,30.6,23,29,30.7,12.9,34.7,22,37,27.9,38
O=C(Cn1c(=O)ccn(Cc2ccccc2)c1=O)NCCS,38.6,17.3,37.2,34.2,47.5,50,39.1,37.5,26.1,36.6,38.2,50.3
O=C(NCCS)c1cnn2cc(Br)cnc12,40.3,33.2,32.3,23.6,33.8,34.8,57.7,43.8,19.9,22.2,25.9,46.3
CC1(C)CCc2nc(NC(=O)CCS)sc2C1,,9.4,14.1,0,25.3,18.3,37.8,,0,15.4,14.1,29
O=C(NCCS)c1ccc(CN2CCCC2)o1,38.9,22.9,36.7,35.6,34.8,45.2,32.6,44.6,29.8,29.2,33.8,52.6
CC(=O)N1CC(C(=O)NCCS)Oc2ccccc21 (configuration not stated),30.6,10.9,33.7,27.2,34.9,26.6,27.9,29.6,20.6,36.4,28.7,56.7
Cc1cc(C)n(Cc2cccc(NC(=O)CCS)c2)n1,,14.3,36.1,32.5,23.9,26.5,36,,23.9,24.7,25,61.6
O=C(NCCS)C1CCCN1C(=O)Cc1cn2ccsc2n1 (configuration not stated),18.8,7.3,22.2,10.1,23,19.6,17.5,16.7,10.6,14.9,12.2,27.1
O=C(CCS)NCc1cc(Oc2cccc(F)c2)ccn1,,20.3,54.7,43,33.8,51.7,38.2,,23.5,30.1,23.6,51.7
O=C(NCCS)c1cncn1-c1ccc(F)cc1,46.1,16.9,40.2,26.5,47.1,36.7,31.5,45.2,25.1,31.3,29.3,43.1
CCN(CC)C(C(=O)NCCS)c1cc(Cl)cc(Cl)c1 (configuration not stated),49.3,15.3,16.7,11.6,23.1,13.6,27.7,27.4,8.7,10.4,7.7,14.9
O=C(CCS)N1Cc2ncccc2N2CCC[C@H]2C1,,11.6,41.5,32.8,26.9,37.5,22.8,,27.8,28.9,33.2,55.6
CC1CN(C(=O)CCS)CCc2cc(Br)c(O)cc21 (configuration not stated),,26,32,21.9,21.1,32.3,47.9,,25.9,20.8,16.8,45.1

SMILES,percent labeling [1] [%],percent labeling [2] [%],percent labeling [3] [%],percent labeling [4] [%],percent labeling [5] [%],percent labeling [6] [%],percent labeling [7] [%],percent labeling [8] [%],percent labeling [9] [%],percent labeling [10] [%],percent labeling [11] [%],percent labeling [12] [%]
CC(CC(=O)NCCS)c1ccccc1Br (configuration not stated),53.9,16.1,27.1,20.8,32.4,38.3,45.4,33.2,17.3,31.7,20.1,35.6
Cc1cc2occ(CC(=O)NCCS)c2cc1C,31.3,12.9,8.5,15.5,14.9,9.5,31.9,26.6,5.8,9.9,10.3,12.2
O=C(NCCS)c1cc(-c2ccco2)n(-c2cccc(Cl)c2)n1,11,12.3,9.5,6,10.5,3.5,10.9,8.2,3.3,5.4,0,15.2
O=C(NCCS)c1c(C(F)(F)F)oc2ccccc12,62.2,14.9,22.6,12.7,23.9,15.5,35,33.2,16.8,19.2,14.6,19.4
O=C(NCCS)c1cccnc1OCC(F)(F)F,48.2,24.5,39.1,19.3,32.7,26.3,34,34.1,23.3,22.8,26.3,33.5
O=C(NCCS)c1cncc(N2CCCC2=O)c1,22.2,12.5,30,23.7,36.7,32.9,26.3,41.2,21.8,25.6,30.4,47.1
O=C(CCS)NCCOc1ncc(C(F)(F)F)cc1Cl,,8.7,36.5,27.4,20.2,29.1,20,,18.3,20.5,17.5,38.6
COC1(c2nc(Cc3ccccc3)no2)CCN(C(=O)CCS)CC1,,12.7,19.1,26.4,15.8,31.3,18.4,,18,16.3,16.3,33.5
O=C(NCCS)C1CC12CCCc1ccccc12 (configuration not stated),27.1,11.3,9.6,9.6,12.9,16.8,26.8,26.3,3.6,19.7,8.9,25
Cc1nc(C(C)(C)C)[nH]c(=O)c1C(=O)NCCS,17.6,8.7,25.5,18.5,37.2,19.7,13.8,29.7,20.9,28.7,24.7,39.4
CCc1csc(-n2cc(C(=O)NCCS)cn2)n1,26.8,14.1,19.2,15.8,25.3,14.3,44.9,39.4,14.6,18.1,16.2,35
Cc1ccc(N(Cc2cnn(C)c2)C(=O)CCS)cc1,,22,54.4,33.3,31.6,40.8,34.6,,31.8,34.8,34.1,62.5
O=C(NCCS)c1nn(-c2cccc(Br)c2)c2c1CCCC2,36.4,16.4,17.7,14.5,19.2,6.2,67.3,16.4,8.4,13.1,3.8,34.6
Cc1[nH]c2ccccc2c1-c1csc(NC(=O)CCS)n1,,15.4,21,23.4,16.8,25.4,48,,17.4,16.9,7.2,50.1
O=C(NCCS)C12CCC(C(F)(F)F)(CC1)CC2,58.4,16.9,28.3,23.7,28.3,20,21.6,36.4,21.6,22.8,20.9,30
O=C1COc2cc(F)c(C(=O)NCCS)cc2N1,15.8,10.1,19.9,11,16,11.8,35.5,27.3,16.4,11.3,9.2,18.8
O=C(CN(Cc1ccco1)c1cccc(Cl)c1)NCCS,37,10.3,13.4,9.7,9.8,9.1,22.1,20,8.1,14.5,6.9,16.7
Cn1c(C(=O)NCCS)cc2ccccc2c1=O,40.5,17.3,29.6,22.7,26.3,32.4,34.2,44.2,22.8,53.5,12.6,51.2
O=C(CCS)Nc1cnc(Oc2ccccc2)nc1,,12.5,29.5,27.3,22.1,68.6,39.3,,16.6,21.7,25,48.7
O=C(Cc1c[nH]c2ccccc12)NC1(C(=O)NCCS)CCCC1,19.1,0,8.1,4.7,8.1,15.6,5.1,10.4,4.5,4.4,4,10.2
O=C(CCS)NCc1cc(-c2ccco2)on1,,11.7,22.2,35.8,23.9,28.6,28.2,,30.7,26.9,25.9,42.2
O=C(NCCS)[C@H]1CCO[C@@H]1c1cccnc1,21.2,9.1,21.5,28,18.6,23.6,10.8,29.4,9.3,22.4,25.2,39.3
